Data reported in the supplement of paper PMC8728848.
The other results are listed elsewhere or left out.

What was measured:
Assay in all cases: glycan array binding signal (z-score within array); higher = stronger binding
Conditions in all cases: glycan notation: IUPAC condensed, linker removed
[1] = molecular target: Glc(a1-4)Glc(a1-4)Glc(a1-4)Glc(a1-4)Glc(a1-4)Glc(a1-4)Glc(a1-4)Glc(a1-4)Glc(a1-4)Glc(a1-4)Glc(a1-4)Glc(a1-4)Glc
Procedure, shortened: (§1)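 Columns mapping to the same glycan were averaged after glycan names were converted to IUPAC-condensed notation. The data come from 3228 arrays in the Consortium for Functional Glycomics database, limited to those with an available protein sequence. Binding is reported as a within-array Z-score averaged across arrays of one protein sequence and across linkers.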

[2] = molecular target: Glc(a1-6)Glc
Procedure, shortened: as §1

[3] = molecular target: Glc(a1-6)Glc(a1-4)Glc(a1-4)Glc
Procedure, shortened: as §1

[4] = molecular target: Glc(a1-6)Glc(a1-6)Glc
Procedure, shortened: as §1

[5] = molecular target: Glc(a1-6)Glc(a1-6)Glc(a1-6)Glc
Procedure, shortened: as §1

[6] = molecular target: Glc(a1-6)Glc(a1-6)Glc(a1-6)Glc(a1-6)Glc
Procedure, shortened: as §1

[7] = molecular target: Glc(a1-6)Glc(a1-6)Glc(a1-6)Glc(a1-6)Glc(a1-6)Glc
Procedure, shortened: as §1

[8] = molecular target: Glc(a1-6)Glc(a1-6)Glc(a1-6)Glc(a1-6)Glc(a1-6)Glc(a1-6)Glc
Procedure, shortened: as §1

[9] = molecular target: Glc(a1-6)Glc(a1-6)Glc(a1-6)Glc(a1-6)Glc(a1-6)Glc(a1-6)Glc(a1-6)Glc
Procedure, shortened: as §1

[10] = molecular target: Glc(a1-6)Glc(a1-6)Glc(a1-6)Glc(a1-6)Glc(a1-6)Glc(a1-6)Glc(a1-6)Glc(a1-6)Glc
Procedure, shortened: as §1

[11] = molecular target: Glc(a1-6)Glc(a1-6)Glc(a1-6)Glc(a1-6)Glc(a1-6)Glc(a1-6)Glc(a1-6)Glc(a1-6)Glc(a1-6)Glc
Procedure, shortened: as §1

[12] = molecular target: Glc(a1-6)Glc(a1-6)Glc(a1-6)Glc(a1-6)Glc(a1-6)Glc(a1-6)Glc(a1-6)Glc(a1-6)Glc(a1-6)Glc(a1-6)Glc
Procedure, shortened: as §1

[13] = molecular target: Glc(a1-6)Glc(a1-6)Glc(a1-6)Glc(a1-6)Glc(a1-6)Glc(a1-6)Glc(a1-6)Glc(a1-6)Glc(a1-6)Glc(a1-6)Glc(a1-6)Glc
Procedure, shortened: as §1

[14] = molecular target: Glc(a1-6)Glc(a1-6)Glc(a1-6)Glc(a1-6)Glc(a1-6)Glc(a1-6)Glc(a1-6)Glc(a1-6)Glc(a1-6)Glc(a1-6)Glc(a1-6)Glc(a1-6)Glc
Procedure, shortened: as §1

[15] = molecular target: Glc(b1-2)Glc
Procedure, shortened: as §1

[16] = molecular target: Glc(b1-3)Glc
Procedure, shortened: as §1

[17] = molecular target: Glc(b1-3)Glc(b1-3)Glc
Procedure, shortened: as §1

[18] = molecular target: Glc(b1-3)Glc(b1-3)Glc(b1-3)Glc
Procedure, shortened: as §1

[19] = molecular target: Glc(b1-3)Glc(b1-3)Glc(b1-3)Glc(b1-3)Glc
Procedure, shortened: as §1

[20] = molecular target: Glc(b1-3)Glc(b1-3)Glc(b1-3)Glc(b1-3)Glc(b1-3)Glc
Procedure, shortened: as §1

[21] = molecular target: Glc(b1-3)Glc(b1-3)Glc(b1-3)Glc(b1-3)Glc(b1-3)Glc(b1-3)Glc
Procedure, shortened: as §1

[22] = molecular target: Glc(b1-3)Glc(b1-3)Glc(b1-3)Glc(b1-3)Glc(b1-3)Glc(b1-3)Glc(b1-3)Glc
Procedure, shortened: as §1

[23] = molecular target: Glc(b1-3)Glc(b1-3)Glc(b1-3)Glc(b1-3)Glc(b1-3)Glc(b1-3)Glc(b1-3)Glc(b1-3)Glc
Procedure, shortened: as §1

[24] = molecular target: Glc(b1-3)Glc(b1-3)Glc(b1-3)Glc(b1-3)Glc(b1-3)Glc(b1-3)Glc(b1-3)Glc(b1-3)Glc(b1-3)Glc
Procedure, shortened: as §1

[25] = molecular target: Glc(b1-3)Glc(b1-3)Glc(b1-3)Glc(b1-3)Glc(b1-3)Glc(b1-3)Glc(b1-3)Glc(b1-3)Glc(b1-3)Glc(b1-3)Glc
Procedure, shortened: as §1

[26] = molecular target: Glc(b1-3)Glc(b1-3)Glc(b1-3)Glc(b1-3)Glc(b1-3)Glc(b1-3)Glc(b1-3)Glc(b1-3)Glc(b1-3)Glc(b1-3)Glc(b1-3)Glc
Procedure, shortened: as §1

[27] = molecular target: Glc(b1-3)Glc(b1-3)Glc(b1-3)Glc(b1-3)Glc(b1-3)Glc(b1-3)Glc(b1-3)Glc(b1-3)Glc(b1-3)Glc(b1-3)Glc(b1-3)Glc(b1-3)Glc
Procedure, shortened: as §1

[28] = molecular target: Glc(b1-4)Glc
Procedure, shortened: as §1

[29] = molecular target: Glc(b1-4)Glc(b1-4)Glc
Procedure, shortened: as §1

[30] = molecular target: Glc(b1-4)Glc(b1-4)Glc(b1-4)Glc
Procedure, shortened: as §1

[31] = molecular target: Glc(b1-4)Glc(b1-4)Glc(b1-4)Glc(b1-4)Glc
Procedure, shortened: as §1

[32] = molecular target: Glc(b1-4)Glc(b1-4)Glc(b1-4)Glc(b1-4)Glc(b1-4)Glc
Procedure, shortened: as §1

[33] = molecular target: Glc(b1-4)Glc(b1-4)Glc(b1-4)Glc(b1-4)Glc(b1-4)Glc(b1-4)Glc
Procedure, shortened: as §1

[34] = molecular target: Glc(b1-4)Glc(b1-4)Glc(b1-4)Glc(b1-4)Glc(b1-4)Glc(b1-4)Glc(b1-4)Glc
Procedure, shortened: as §1

[35] = molecular target: Glc(b1-4)Glc(b1-4)Glc(b1-4)Glc(b1-4)Glc(b1-4)Glc(b1-4)Glc(b1-4)Glc(b1-4)Glc
Procedure, shortened: as §1

[36] = molecular target: Glc(b1-4)Glc(b1-4)Glc(b1-4)Glc(b1-4)Glc(b1-4)Glc(b1-4)Glc(b1-4)Glc(b1-4)Glc(b1-4)Glc
Procedure, shortened: as §1

[37] = molecular target: Glc(b1-4)Glc(b1-4)Glc(b1-4)Glc(b1-4)Glc(b1-4)Glc(b1-4)Glc(b1-4)Glc(b1-4)Glc(b1-4)Glc(b1-4)Glc
Procedure, shortened: as §1

[38] = molecular target: Glc(b1-4)Glc(b1-4)Glc(b1-4)Glc(b1-4)Glc(b1-4)Glc(b1-4)Glc(b1-4)Glc(b1-4)Glc(b1-4)Glc(b1-4)Glc(b1-4)Glc
Procedure, shortened: as §1

Measured: glycan array binding signal (z-score)

B1: MIC1 (Toxoplasma gondii), O00834 (protein)
chain: VGPEAYGEASHSHSPASGRYIQQMLDQRCQEIAAELCQSGLRKMCVPSSRIVARNAVGITHQNTLQWRCFDTASLLESNQENNGVNCVDDCGHTIPCPGGVHRQNSNHATRHEILSKLVEEGVQRFCSPYQASANKYCNDKFPGTIARRSKGFGNNVEVAWRCYEKASLLYSVYAECASNCGTTWYCPGGRRGTSTELDKRHYTEEEGIRQAIGSVDSPCSEVEVCLPKDENPPLCLDESGQISRT
-0.303: [6]
-0.283: [11]
-0.298: [20]
-0.278: [3]
-0.312: [2] | [7] | [8] | [9] | [19] | [31]
-0.287: all other assays above
